The whole screen tested about 310,000 compounds, of which about 14,000 (4.5%) showed an effect of 50% or more. Effects have a minus sign here. This is one part of the list.
Molecular target: human ether-à-go-go-related gene (hERG) potassium channel (human, UniProt Q12809)
Experiment: primary screen, population patch clamp on CHO cells stably expressing hERG
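Note: peak tail current of the secondary pulse compared with the same well before compound.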

Sequence of human ether-à-go-go-related gene (hERG) potassium channel (Q12809 whole entry, looked up): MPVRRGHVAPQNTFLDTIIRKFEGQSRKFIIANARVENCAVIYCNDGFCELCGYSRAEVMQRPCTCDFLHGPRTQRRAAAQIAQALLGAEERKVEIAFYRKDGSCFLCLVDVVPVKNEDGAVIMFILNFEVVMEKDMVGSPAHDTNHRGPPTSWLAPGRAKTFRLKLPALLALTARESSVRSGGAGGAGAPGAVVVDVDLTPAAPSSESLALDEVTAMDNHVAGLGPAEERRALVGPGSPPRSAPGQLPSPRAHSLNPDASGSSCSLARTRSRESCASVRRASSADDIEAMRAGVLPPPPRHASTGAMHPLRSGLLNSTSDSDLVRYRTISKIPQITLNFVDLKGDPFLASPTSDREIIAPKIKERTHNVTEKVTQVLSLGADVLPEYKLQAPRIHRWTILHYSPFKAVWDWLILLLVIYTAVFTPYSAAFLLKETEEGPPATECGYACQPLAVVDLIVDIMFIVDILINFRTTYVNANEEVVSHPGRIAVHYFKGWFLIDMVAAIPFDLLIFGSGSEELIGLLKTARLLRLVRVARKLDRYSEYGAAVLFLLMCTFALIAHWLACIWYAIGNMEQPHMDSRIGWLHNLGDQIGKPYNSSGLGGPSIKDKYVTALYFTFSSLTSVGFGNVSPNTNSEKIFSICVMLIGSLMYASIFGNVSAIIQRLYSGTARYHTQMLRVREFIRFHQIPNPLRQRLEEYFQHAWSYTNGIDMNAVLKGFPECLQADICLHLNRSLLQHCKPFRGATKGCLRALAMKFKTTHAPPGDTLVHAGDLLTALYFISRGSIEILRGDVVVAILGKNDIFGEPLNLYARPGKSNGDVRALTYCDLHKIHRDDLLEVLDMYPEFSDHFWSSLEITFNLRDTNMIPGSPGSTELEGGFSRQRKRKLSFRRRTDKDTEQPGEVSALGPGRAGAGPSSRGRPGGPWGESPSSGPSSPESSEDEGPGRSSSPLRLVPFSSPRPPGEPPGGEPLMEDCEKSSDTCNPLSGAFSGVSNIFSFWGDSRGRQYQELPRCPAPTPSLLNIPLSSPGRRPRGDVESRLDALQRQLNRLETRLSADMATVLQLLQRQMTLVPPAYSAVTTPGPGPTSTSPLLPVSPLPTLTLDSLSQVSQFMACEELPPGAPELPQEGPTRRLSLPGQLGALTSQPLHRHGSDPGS

| SMILES | hERG current change (%, negative = inhibition) at 10uM |
| --- | --- |
| CCOC(=O)Cc1cc(=O)[nH]c(Nc2nc3ccccc3o2)n1 | -1.53% |
| Cc1ccc(C)c(S(=O)(=O)Nc2ccccc2C(=O)Nc2cc(C)on2)c1 | 1.84% |
| CCC(C)NC(=O)c1cn(CCOC)c(=O)c2c1c1ccccc1n2C (centres unmarked) | 20.4% |
| Cc1ccc(NC(NC(=O)c2ccccc2[N+](=O)[O-])C(Cl)(Cl)Cl)cc1 (centres unmarked) | -5.27% |
| Cc1c(C(c2ccc(F)cc2)c2c(O)c3ccccc3oc2=O)c(=O)n(-c2ccccc2)n1C (centres unmarked) | -20.9% |
| COc1ccc(-c2csc3ncnc(N4CCN(CCO)CC4)c23)cc1 | -1.12% |
| Cl.O=C1C2CCCC1C(N1CCCCC1)CC2 (centres unmarked) | 7.25% |
| O=C(Nc1ccc(F)cc1F)c1c(C(F)(F)F)ccnc1Oc1cccc(C(F)(F)F)c1 | 9.41% |
| Cc1cccc(OCC(=O)Nc2ccc(NC(=O)c3ccco3)c(C)c2)c1 | -15.3% |
| Cc1cc(C)c(NC(=O)CSCc2c(C)noc2C)c(C)c1 | 5.86% |
| CCOC(=O)N1CCN(C(=O)c2ccc(Cl)c(NC(=O)c3cccs3)c2)CC1 | -54.7% |
| COc1ccc(N2C(N)=C(C#N)C(c3cccnc3)C3=C2CC(C)(C)CC3=O)cc1 (centres unmarked) | -17.4% |
| Cc1ccc(-c2nnc(SCc3ccc(C#N)cc3)n2Cc2ccco2)cc1 | -20.6% |
| COc1ccccc1/C=C/C(=C1/C(=O)N(c2ccccc2)N=C1C)c1ccc(C)cc1 | 1.24% |
| COc1ccc(NC(=O)C2CCCNC2)cc1OCC(C)C (centres unmarked) | -1.49% |
| CN(CCCNC(=O)CSc1cc(=O)n(C)c2ccc(Cl)cc12)Cc1ccccc1 | -61.2% |
| Cc1cc(N2C(=O)C(=O)/C(=C(/O)c3ccccc3)C2c2cccs2)no1 (centres unmarked) | 4.54% |
| COC(=O)c1ccc2[nH]c(CO)c(-c3ccccc3)c2c1 | 8.99% |
| NS(=O)(=O)c1ccc(NC(=O)c2ccc(S(=O)(=O)N3CCc4ccccc43)cc2)cc1 | 10.3% |
| COc1cnn(-c2ccc(Br)cc2)c(=O)c1SCc1ccccc1 | -65.6% |
| CCCn1c(N)c(C(=O)CSc2nc(N)cc(=O)[nH]2)c(=O)n(C)c1=O | 11.4% |
| CC1(C)Cc2c(cnn2-c2ccccc2)C(NC(=O)CCc2ccc(=O)[nH]n2)C1 (centres unmarked) | -0.0884% |

| SMILES | hERG current change (%, negative = inhibition) at 10uM |
| --- | --- |
| COc1cc(-c2cc[n+](C)cc2)ccc1O.[Br-] | 8.15% |
| Cc1cccc(NC(=O)CSc2ccc3nnc(-c4cccnc4)n3n2)c1 | -30.1% |
| COc1ccc(CNC(=O)COC(=O)CN2C(=O)COc3ccccc32)cc1 | -8.6% |
| COCCCn1c(SCc2cc(=O)[nH]c3ccccc23)nnc1-c1ccco1 | -0.762% |
| CCC(c1nnnn1C1CCCC1)N1CCN(c2cccc(OC)c2)CC1.Cl (centres unmarked) | 1.95% |
| CC1CCN(S(=O)(=O)c2ccc3[nH]c(=O)[nH]c3c2)CC1 | -3.58% |
| Cc1cc(NC(=O)CCC(=O)N(c2cccc(F)c2)C(C(=O)NC2CCCC2)c2ccncc2)no1 (centres unmarked) | 6.08% |
| Cn1nc(-c2ccccc2)cc1NC(=O)c1ccccc1 | 8.5% |
| Cc1ccccc1[C@]1(C)ON(c2ccccc2C(F)(F)F)C1=O | 12.9% |
| O=C(O)CCC(=O)Nc1ccc2c(c1)oc1ccccc12 | 0.665% |
| O=C(NCC1CCCO1)c1cccc(Oc2ccc([N+](=O)[O-])cc2Cl)c1 (centres unmarked) | -72.6% |
| O=C(Cc1ccc(NS(=O)(=O)c2ccc(F)cc2)cc1)NCc1cccnc1 | 13.1% |
| CC(C)c1ccc(NC(=O)c2snc3ccc(Cl)cc23)cc1 | 14.4% |
| CCOc1ccc(N(CC(=O)Nc2ccc(C)cc2)S(C)(=O)=O)cc1 | 9.02% |
| C=CCn1c(=O)c(C(=O)NCCc2ccc(Cl)cc2)c(O)c2cc(OC)c(OC)cc21 | 19% |
| CCc1ncc(CN2CCC(C(=O)Nc3cccc(-c4cscn4)c3)CC2)cn1 | -25.1% |
| N#CC1(NC(=O)CSc2nc3ccccc3s2)CCCCC1 | -15.7% |
| O=C(Nc1nnc(-c2ccc(Cl)cc2)o1)NC1CCCCC1 | 16.1% |
| COc1cccc(N2C(=O)NC(=O)/C(=C/c3ccc4c5c(cccc35)CC4)C2=O)c1 | 2.98% |
| O=C(c1ccc(S(=O)(=O)N2CCOCC2)cc1)N1CCN(c2cccc(Cl)c2)CC1 | -42.4% |
| COC(=O)CCCCCN1C(=O)NC(c2ccccc2)C(C(=O)OCc2ccccc2)=C1C (centres unmarked) | 6.17% |
| O=C(NC(=S)Nc1ccccc1Br)c1cccnc1 | 16.4% |

| SMILES | hERG current change (%, negative = inhibition) at 10uM |
| --- | --- |
| CCOc1ccc(Nc2cc(Nc3ccccc3OCC)nc(C=C(C#N)C#N)n2)cc1 | 2.96% |
| Cc1ccc(NC(=O)c2ccc(NS(=O)(=O)c3c(C)noc3C)cc2)cc1C | -13.3% |
| COCC(C)NC(=O)C(C)Oc1ccccc1 (centres unmarked) | 12% |
| CC(C)c1nc2ccccn2c1NC1CCCCC1 | -20.9% |
| COc1ccccc1Nc1nc(N)nc(CSc2nc(C)cc(C)n2)n1 | -13.5% |
| CC1CCC(NC(=O)C2(C)CCC(=O)N2Cc2cccnc2)CC1 (centres unmarked) | 7.11% |
| Cc1cc(NC(=O)Cn2cc(C(F)(F)F)cc(Cl)c2=O)no1 | -4.57% |
| CCOC(=O)C1CCN(C(=O)Nc2ccc(NC(=O)C3CCN(C(=O)OCC)CC3)cc2)CC1 | -38.9% |
| O=C(N=Nc1c(O)[nH]c2ccc(Cl)cc12)c1cc(-c2cccs2)nc2ccccc12 | 8.57% |
| Cc1ccc2c(c1)N(CC(=O)NC1CCC(C)CC1)C(=O)CO2 (centres unmarked) | -10.1% |
| COC(=O)[C@H](C)NC(=O)Nc1ccccc1F | -2.78% |
| O=C(Nc1ccc2nn(-c3ccccc3)nc2c1)c1ccco1 | 7.51% |
| COC(=O)COc1cccc2c(=O)n(CC(=O)Nc3ccc4c(c3)OCCO4)ccc12 | 17.3% |
| CCOC(=O)c1c(NC(=O)c2ccccc2N(C)S(=O)(=O)c2ccccc2)sc2c1CCCC2 | 6.96% |
| CCOc1ccc(CN(C)C(C)C(=O)NCc2ccccc2)cc1 (centres unmarked) | -54.8% |
| O=C(CSc1nnc2scc(-c3ccccc3)n12)c1ccc2c(c1)OCCO2 | 6.86% |
| CC(=O)Oc1ccc(N(C(C)=O)S(=O)(=O)c2ccc(C)cc2)c2ccccc12 | -1.12% |
| COc1ccc(-c2[nH]ncc2[C@@H]2C[C@H]3CN(Cc4ccccc4C)C(=O)[C@]34CCCN24)cc1 | -51.7% |
| Cc1ccccc1CN1C(=O)CSc2ccc(C(=O)N3CCOCC3)cc21 | -4.17% |
| CCOC(=O)N1CCN(Cc2cccs2)CC1 | 24.3% |
| NC(=O)COc1ccc(NC(=O)OCc2ccccc2)cc1 | -0.303% |
| O=C(c1cccnc1)N1CCC(Oc2ccc(C(=O)N3CCCCO3)cc2)CC1 | 3.97% |

| SMILES | hERG current change (%, negative = inhibition) at 10uM |
| --- | --- |
| CC(=O)c1ccc(C(=O)N2CCCC(Nc3ccc(C(C)C)cc3)C2)s1 (centres unmarked) | -7.8% |
| CCOC(=O)N1CCN(C(=O)C(=O)Nc2ccc3nc4n(c(=O)c3c2)CCCCC4)CC1 | 3.36% |
| O=C(Cn1nc(-c2ccc(Cl)cc2)ccc1=O)NCCCN1CCN(Cc2ccccc2)CC1 | -64.2% |
| Cc1cc(C)n(CCNCc2c(C(=O)N3C[C@@H](C)O[C@@H](C)C3)nc3ccc(Cl)cn23)n1 | 12.3% |
| O=C(Cn1c(=O)c2cccn2c2ccc(F)cc21)NCCCN1CCN(c2ccccc2F)CC1 | -50.5% |
| CCOC(=O)Cc1csc(NC(=O)CCCN2C(=O)c3ccccc3C2=O)n1 | 12.2% |
| COC(=O)c1ccncc1N | 12.4% |
| C=CCc1cccc2cc(C(=O)N3CCN(c4ccccn4)CC3)c(=O)oc12 | -38.9% |
| CCOC(=O)CSc1nc(=O)n2ccc(C)cc2n1 | 12.1% |
| CCC(C)Sc1nnc(NC(=O)c2ccco2)s1 (centres unmarked) | 3.24% |
| CC(C)Cn1c(-c2ccc(F)cc2)n[nH]c1=S | 10.7% |
| O=C(c1cnn2c(C(F)F)cc(-c3ccccc3)nc12)N1CCOCC1 | -10.4% |
| COc1ccccc1CN1CCN(Cc2ccco2)CC1.O=C(O)C(=O)O | -1.98% |
| CCOC(=O)c1c(C)c(C(=O)NCc2cccs2)c(C)n1CC | -3.39% |
| COc1ccc(CNC(=O)CCCn2nc(C)n3ccnc3c2=O)cc1 | 8.86% |
| CCOc1cc(/C=N/NC(=O)CN2CCOCC2)ccc1OCc1ccc(Cl)cc1 | -14% |
| COC(=O)C1=C(c2cccc(OC)c2OC)C[C@@H]2CC[C@H]1N2C | -6.68% |
| CCCc1[nH]nc2c1C(/C(C)=C/c1ccccc1)C(C#N)=C(N)O2 (centres unmarked) | -3.25% |
| C/C(N)=C(/C#N)C(=O)COC(=O)C1Cc2ccccc2CN1S(C)(=O)=O (centres unmarked) | 5.45% |
| O=C(Cn1c(=O)oc2ccccc21)Nc1ccc(Cl)cc1 | 16.7% |

— article PMC4336329 (PLoS ONE, 2015)
